# Measurements from the supplement of paper PMC3334620.
# Over roughly 33,000 sequences, “E-score (-0.5 to 0.5)” has its median near -0.036; the highest 2% begin near 0.37. The list shows a part of the results.
# Target: T1, Yer064c (UniProt P40041)
# T1 sequence: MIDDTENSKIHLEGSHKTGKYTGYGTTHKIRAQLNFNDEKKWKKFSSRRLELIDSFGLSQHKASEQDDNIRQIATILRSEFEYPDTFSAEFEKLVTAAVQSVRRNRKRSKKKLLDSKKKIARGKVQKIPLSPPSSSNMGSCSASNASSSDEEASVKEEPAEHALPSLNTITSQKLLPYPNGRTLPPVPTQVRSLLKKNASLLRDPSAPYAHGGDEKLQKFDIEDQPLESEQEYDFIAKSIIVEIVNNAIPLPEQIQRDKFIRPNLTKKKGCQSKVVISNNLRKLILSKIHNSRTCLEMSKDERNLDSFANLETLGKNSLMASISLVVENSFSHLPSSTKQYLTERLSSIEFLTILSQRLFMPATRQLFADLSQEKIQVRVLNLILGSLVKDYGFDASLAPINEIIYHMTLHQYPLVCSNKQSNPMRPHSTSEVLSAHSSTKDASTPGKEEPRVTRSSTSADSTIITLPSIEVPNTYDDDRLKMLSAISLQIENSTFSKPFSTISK
# Experiment: PBM E-score (8-mer binding enrichment) (E-score (-0.5 to 0.5)); higher = stronger / more preferred TF binding; most listed sequences are background and not binding sites
# Conditions: protein concentration: 200 nM; construct: GST-full length
# Summary of the method: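 Bound GST-tagged yeast transcription factors, applied at about 100-200 nM to double-stranded universal all-10-mer Agilent arrays, were detected with fluorescent anti-GST. Scans were normalised with masliner. A modified Wilcoxon-Mann-Whitney statistic, the E-score, was assigned to each ungapped eight-base word pooled with its reverse complement by the Universal PBM Analysis Suite.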
row,Sequence,PBM E-score
1,GGAGCTGA,0.059
2,CTTAAAAA,-0.0045
3,AGGTTCAG,0.0267
4,CTTCCTCC,-0.383
5,AACGCGTG,0.0132
6,CTAAGCTA,0.0659
7,AAGTCACC,0.447
8,AGAATTAT,0.0179
9,ACGTCGGA,-0.181
10,ACAGCTGA,0.0256
11,CTGTGCCA,-0.115
12,CGCTCCCG,0.17
13,CATGGACG,-0.174
14,CGCGCCGC,-0.143
15,ACCAACCC,-0.0453
16,CTGAACAA,0.0541
17,CTTAGATC,0.0655
18,CGAAATCG,-0.0559
19,AAGGGTAA,0.0589
20,CCGAACGC,-0.0566
21,ACACGAGG,-0.124
22,AAATCAGG,0.222
23,CCAGAGGA,0.00907
24,GATGGTCA,0.131
25,TGCAAGAA,0.00136

row,Sequence,PBM E-score
1,CCTCCGAG,-0.0599
2,GAATGGAA,-0.0983
3,GGATCGGA,-0.224
4,CGTGTAGA,0.00707
5,GGGATCCA,-0.185
6,CACGTCAC,-0.17
7,CGTACGGC,-0.2
8,ATATAACG,0.0524
9,TGCGAGCA,-0.0494
10,CAATATAA,0.0543
11,CCCGAGAA,-0.0467
12,ATACCCAG,-0.15
13,ATTGAACA,0.066
14,AAGAGTCG,0.423
15,AGGTGACG,-0.188
16,ACGGCTAG,-0.178
17,CCTGATGC,-0.0643
18,AACCCATT,-0.00125
19,GGTGACTA,0.486
20,ACTGTATG,0.139
21,CGGCCAGA,-0.126
22,GGGTCCCA,-0.194
23,CCGGCACG,-0.197
24,CGGCTAAG,-0.0353
25,AAAGCTAG,-0.024

row,Sequence,PBM E-score
1,CTCGAGGC,-0.0557
2,CCCCGCAG,-0.283
3,CCTCTATA,-0.25
4,ACGAAAAA,-0.0445
5,CGCGCGTC,-0.143
6,CGCAGCGA,0.123
7,ATATGAGG,0.0398
8,ATTGTCGC,0.0653
9,GAAACGGA,-0.204
10,AAGCAGTG,-0.0938
11,CGAAGCCC,-0.299
12,GGCCACAA,-0.268
13,CGCAGGCC,-0.279
14,GTGCACGA,0.00691
15,CCTTCTCG,-0.281
16,GGAGTGAC,0.255
17,CAGAGAGG,-0.235
18,ATGATATG,0.037
19,CAGTAGTC,0.403
20,GTCGAACA,0.0579
21,ACTTTGAA,0.21
22,CACCGCTC,-0.145
23,ATAAGGGC,-0.153
24,ATCACCAC,0.165
25,ACTTAGCG,0.1

row,Sequence,PBM E-score
1,AGGCAAAC,-0.222
2,CTGATATC,-0.024
3,AATCTAAA,0.207
4,AGATGAGA,0.191
5,ACCCTGAT,0.174
6,ACAGAACT,0.158
7,AACGATGG,0.00598
8,ACCATGAC,0.237
9,AAGTCTAG,-0.11
10,ATTTGACC,-0.0689
11,ACACAGTA,0.166
12,AAGACAAC,-0.0105
13,GCACCTGA,-0.00206
14,GCAAGGAC,-0.0996
15,GCGGAAAA,-0.235
16,GACTGTTA,0.279
17,TCTGCACA,-0.111
18,AAGCAGGC,-0.0443
19,CTGTTCCA,-0.13
20,TCGGCACA,-0.0968
21,ACCCGGCT,-0.0168
22,GACGGCCC,-0.375
23,ATCATCCG,0.242
24,CCGAGTTA,-0.0385
25,ATGGGTGC,-0.15

row,Sequence,PBM E-score
1,CTTCGTGA,0.115
2,AGGAGTCC,0.297
3,AAACACTC,-0.023
4,AGGATCTC,-0.291
5,AGCACACA,0.023
6,CAACCGAC,0.00099
7,CTGCACAA,-0.0559
8,CCACCATA,-0.0008
9,ACGCTCTG,-0.0609
10,ATTTGATG,0.199
11,GTCTCCCA,0.0829
12,CGAAGATA,0.0915
13,ACGTTAAC,-0.0219
14,ACATTCAC,-0.0247
15,CATCCTTA,0.0533
16,AGAAGGGG,-0.324
17,CCTGCGCG,-0.0204
18,CCGCCTCA,-0.181
19,CTCTTGGA,-0.0132
20,ATTGACTA,0.428
21,CCAGGGAG,-0.015
22,GGCCGTCA,-0.262
23,GAAATCTC,-0.0155
24,AAAGTCCG,-0.274
25,ACCTCCAT,-0.229

row,Sequence,PBM E-score
1,CCCGTTCG,-0.0469
2,AGACTGAA,0.241
3,AACTTGGT,-0.113
4,ATTCAGAG,0.148
5,CACGAGAC,0.183
6,CCGAACTA,0.0214
7,GTCGGTCA,-0.0403
8,AAACGGTT,-0.303
9,CGGGTCAC,-0.125
10,ACGCCTAG,-0.133
11,AGAATCGA,-0.0201
12,CGTATCAG,-0.0823
13,CTTTTAAC,-0.104
14,CAACTAGC,-0.0233
15,GTGCGTCA,-0.0644
16,GTGCCGTA,-0.25
17,GGTACGCA,-0.154
18,CGGACAGA,-0.0764
19,CCCGGACA,-0.142
20,ACACGCGA,0.0442
21,TAACGTAA,0.0837
22,ATCCAGCC,-0.184
23,CTTATGTA,0.19
24,TAGATTCA,0.163
25,CCCTGCCG,-0.241

row,Sequence,PBM E-score
1,GAGGAGGA,-0.192
2,AATTATTG,0.0615
3,ACCGGTAA,-0.0542
4,GTGTCGTA,0.146
5,AGCCAATG,0.08
6,ACCGTTAG,-0.0649
7,CCTATTAA,-0.121
8,AATATGAC,0.292
9,CAGATAAC,0.15
10,CTCTCAGA,-0.173
11,ACTCGTGG,0.111
12,CCCGCATA,-0.019
13,GCCGTACA,0.0804
14,AGAGAGGA,0.0469
15,CTTAAGCA,-0.00514
16,ATTTCTGC,0.0175
17,CCACGGGG,-0.108
18,GTGAGAAA,-0.0285
19,CCGCCAAC,-0.00346
20,AAAGAGTT,0.219
21,AAACAACC,-0.0461
22,GTTAGAAA,0.0139
